# Source: publication PMC4336329 (PLoS ONE, 2015)
# In all, about 310,000 compounds went through this assay and about 14,000 (4.5%) showed an effect of 50% or more. The effect is printed as a negative number. This is one part of the list.
# Biological target: human ether-à-go-go-related gene (hERG) potassium channel (human, UniProt Q12809)
# Experiment: primary screen, population patch clamp on CHO cells stably expressing hERG
# 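Note: peak tail current of the secondary pulse compared with the same well before compound.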
# human ether-à-go-go-related gene (hERG) potassium channel, sequence (Q12809 whole entry, looked up): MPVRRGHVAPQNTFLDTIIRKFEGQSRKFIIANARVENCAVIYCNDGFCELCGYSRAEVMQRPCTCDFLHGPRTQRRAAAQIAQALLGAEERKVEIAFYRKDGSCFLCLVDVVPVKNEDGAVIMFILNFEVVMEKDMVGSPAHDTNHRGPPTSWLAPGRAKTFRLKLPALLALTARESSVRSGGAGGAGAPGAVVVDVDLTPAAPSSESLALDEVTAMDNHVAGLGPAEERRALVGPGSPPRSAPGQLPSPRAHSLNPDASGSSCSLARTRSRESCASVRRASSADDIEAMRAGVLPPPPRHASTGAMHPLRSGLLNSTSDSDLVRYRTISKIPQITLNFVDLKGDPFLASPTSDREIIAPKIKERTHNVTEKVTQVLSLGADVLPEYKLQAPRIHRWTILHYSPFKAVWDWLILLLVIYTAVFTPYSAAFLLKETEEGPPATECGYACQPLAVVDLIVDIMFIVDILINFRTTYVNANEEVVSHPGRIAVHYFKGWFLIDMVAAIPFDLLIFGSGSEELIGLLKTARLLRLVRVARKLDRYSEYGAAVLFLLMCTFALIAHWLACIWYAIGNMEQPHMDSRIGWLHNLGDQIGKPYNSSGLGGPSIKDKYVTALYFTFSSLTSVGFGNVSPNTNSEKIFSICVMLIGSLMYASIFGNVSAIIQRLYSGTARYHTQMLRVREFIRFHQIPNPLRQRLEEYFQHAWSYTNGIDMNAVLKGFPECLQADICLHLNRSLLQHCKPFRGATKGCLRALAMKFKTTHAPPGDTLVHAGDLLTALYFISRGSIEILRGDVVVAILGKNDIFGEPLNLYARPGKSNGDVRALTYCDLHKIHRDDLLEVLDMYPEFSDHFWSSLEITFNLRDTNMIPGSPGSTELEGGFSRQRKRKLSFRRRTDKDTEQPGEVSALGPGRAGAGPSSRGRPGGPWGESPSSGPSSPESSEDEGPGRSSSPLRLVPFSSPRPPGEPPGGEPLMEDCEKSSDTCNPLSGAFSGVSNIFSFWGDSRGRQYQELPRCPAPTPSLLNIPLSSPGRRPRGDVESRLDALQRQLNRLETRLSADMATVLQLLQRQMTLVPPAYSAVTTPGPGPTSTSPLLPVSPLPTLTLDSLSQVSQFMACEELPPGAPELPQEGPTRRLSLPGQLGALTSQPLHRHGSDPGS
row,Compound,"hERG current change (%, negative = inhibition) at 10uM"
1,C=CCNc1nnc(Cc2ccc(F)cc2)c(=O)[nH]1,20.9%
2,NCCCCCc1cn([C@@H](CO)C(=O)NCCCCCCCCCCC(=O)N2CCNCC2)nn1,-0.955%
3,CCN(CC)C(=O)c1[nH]cnc1C(=O)N[C@@H](C)C(=O)OCc1ccccc1,6.82%
4,CC(C(=O)NC1CCCc2ccccc21)N1C(=O)C2CCCCC2C1=O (centres unmarked),1.23%
5,O=C1NC(c2ccccc2)(C(F)(F)F)SC2=CCCCCN12 (centres unmarked),15.1%
6,CN(CC(=O)NCCc1ccc(S(N)(=O)=O)cc1)S(=O)(=O)c1ccc(Br)s1,-0.634%
7,O=C(c1cccc(S(=O)(=O)N2CCOCC2)c1)N1CCC(Cc2ccccc2)CC1,-30.4%
8,CCC(CC)C(=O)NCCc1cc2c(C)ccc(C)c2[nH]c1=O,2.39%
9,Cc1ccc(S(=O)(=O)N2CCCC2C(=O)Nc2nc3ccccc3s2)cc1 (centres unmarked),-14.8%
10,C=CCN1C(=O)[C@@H]2Cc3c([nH]c4ccccc34)C(c3cc(OC)c(OC)c(OC)c3)N2C1=S (some centres unmarked),18.1%
11,O=C(N/N=C/c1ccc([N+](=O)[O-])o1)c1cn(-c2ccccc2)nc1-c1ccc(Cl)cc1,9.89%
12,COc1cccc(C(=O)CSc2nnnn2C2CCCCC2)c1,7.17%
13,CC(=O)N1N=C(c2ccc3ccccc3c2)OC1(C)C,-2.22%
14,Cl.O=C(OCCN1CCCCC1)c1ccccc1Br,-37.3%
15,O=C1NC(=O)C(CCc2ccncc2)(CCc2ccncc2)C(=O)N1C1CCCCC1,-75.3%
16,COc1cc(C)nc(N(C)S(=O)(=O)c2ccccc2Cl)n1,-3.1%
17,COCCn1c(C)nnc1SCC(=O)NNC(=O)c1ccc(Cl)cc1,16.4%
18,O=C(NC(=S)NNS(=O)(=O)c1ccccc1)c1ccc([N+](=O)[O-])cc1,8.74%
19,Cc1c2ccccc2cc[n+]1CCCS(=O)(=O)[O-],28.4%
20,COc1cc(C(=O)Nc2ccc(OCC(=O)N3CCOCC3)cc2C)cc(OC)c1OC,14.8%
21,O=C(Cn1cnc2c(nnn2Cc2ccc(Cl)cc2)c1=O)NC1CCCC1,13.7%
22,COc1cc2nc(Nc3ccc(F)cc3)nc(N)c2cc1OC.Cl,-17.2%

row,Compound,"hERG current change (%, negative = inhibition) at 10uM"
1,Cc1ccc2oc(=O)c(/C=C(\O)c3ccco3)nc2c1,13.4%
2,CCOC(=O)NCC(C#CCN(CC)CC)N(CC)CC (centres unmarked),-1.15%
3,CC(=O)Nc1ccc(S(=O)(=O)N[C@@H](C)C(=O)OCc2cc([N+](=O)[O-])cc3c2OCOC3)cc1,-4.19%
4,C/C(=N\NC(=O)CNC(=O)c1ccccc1Br)c1ccco1,2.5%
5,COc1ccc(Nc2ccnc3ccccc23)cc1.Cl,-33.8%
6,Cc1ccc(OCC(=O)NN2C(=O)c3ccccc3C2=O)c(C)c1,6.34%
7,COc1cccc(C(=O)/C=C/c2ccc(N3CCCCC3)c([N+](=O)[O-])c2)c1,-3.01%
8,Cl.O=C(CCN1CCOCC1)Nc1ccc(Cl)cc1,6.33%
9,COc1ccc(OCC(=O)Nc2cc(NC(=O)COc3ccc(OC)cc3)cc(C(=O)O)c2)cc1,14.6%
10,CC(NC(=O)[C@H](C)NC(=O)C1CC(=O)N(c2ccc3c(c2)OCO3)C1)c1ccccc1 (some centres unmarked),9.33%
11,COc1ccc(NC(=O)c2cccc(NC(=O)C3C4CC5OC(=O)C3C5C4)c2)c(OC)c1 (centres unmarked),10.8%
12,COc1ccc(C(=O)C2CCCN(Cc3cnc(N4CCOCC4)s3)C2)c(OC)c1 (centres unmarked),-46.9%
13,O=C(Cc1ccc(Cl)cc1)Nc1ccc(NC(=O)c2ccccc2)cc1,36.8%
14,COc1ccc(NC(=O)C2CC(c3cccc(Br)c3)=NO2)cc1OC (centres unmarked),17.9%
15,Cc1ccc(N2CCN(CC(O)COc3cccc4ccccc34)CC2)cc1 (centres unmarked),-25.1%
16,C=CCNC(=O)[C@H]1N2C(=O)c3ccccc3C2SC1(C)C (some centres unmarked),21.1%
17,C=CCN(C(=O)CNC(=O)c1ccco1)C(C(=O)NC1CCCCC1)c1cccnc1 (centres unmarked),4.68%
18,COc1ccc(S(=O)(=O)N2CCc3ccccc32)cc1C(=O)OCC(=O)c1c(N)n(C)c(=O)n(C)c1=O,21.1%
19,CCOc1ccccc1N(CC(=O)Nc1ccc(S(=O)(=O)N2CCOCC2)cc1)S(=O)(=O)c1ccccc1,14.3%
20,CN1CCN(C(=O)c2cccn(Cc3ccc(C(F)(F)F)cc3)c2=O)CC1,20.1%
21,COCCN1CCN(c2c(C)c(C)nc3cc(-c4cccc(OC)c4)nn23)CC1,-15.6%
22,CS(=O)(=O)NCCOc1ccc(S(=O)(=O)N2CCCc3ccccc32)cc1,-43%

row,Compound,"hERG current change (%, negative = inhibition) at 10uM"
1,CC(C)NCC(O)COCCOc1ccc(Cl)cc1.Cl (centres unmarked),-10.1%
2,COc1ccc2cc3cc(C(=O)NCCCN4CCc5ccccc5C4)sc3nc2c1,-32.7%
3,O=C(Cn1nnc(-c2ccccc2F)n1)N1CCCCC1,13.6%
4,NC(=O)[C@@H]1CC2(CC(c3cccc(NC(=O)[C@H]4CCC(=O)N4)c3)=NO2)CN1C(=O)COc1ccc(Cl)cc1 (some centres unmarked),21.9%
5,Cc1ccc(NC(=O)CC(O)(C(F)(F)F)C(F)(F)F)cc1,11.5%
6,COc1cccc(/C=N/NC(=O)c2ccccc2NC(=O)c2ccco2)c1OC,-5.89%
7,C/C(Cc1ccccc1)=N/NC(=O)CNC(=O)C(c1ccccc1)c1ccccc1,10.4%
8,CCOC(=O)N1CCN(Cc2nc(N)nc(Nc3ccc(C)cc3)n2)CC1,-57.2%
9,CCOc1ccc(C(=O)C2CCN(C(=O)c3ccccc3C(=O)O)CC2)cc1,-5.42%
10,COc1ccc(C(CC(=O)O)NC(=O)C(c2ccccc2)c2ccccc2)cc1 (centres unmarked),22.6%
11,COc1ccc(S(=O)(=O)N2CCCC2CNC(=O)C(=O)NCc2ccccc2)cc1 (centres unmarked),-8.87%
12,COc1ccccc1CN(C)CC(=O)NC1CCCc2ccccc21 (centres unmarked),-22.1%
13,COCCCNC(=O)[C@H]1N2C(=O)c3ccccc3C2SC1(C)C (some centres unmarked),15.3%
14,O=C(CCN1C(=O)c2cccc3cccc(c23)C1=O)NCC1CCCO1 (centres unmarked),8.96%
15,COC(=O)c1sc(NC(=S)NC(=O)c2ccc(F)cc2)nc1C,19.1%
16,O=C1COc2ccc(S(=O)(=O)CCC(=O)N3CCN(c4ccccc4)CC3)cc2N1,-13.1%
17,Cc1cccc(NS(=O)(=O)c2ccc(C(=O)N3CCCC3)cc2)c1C,-2.28%
18,CCOCCCNC(=O)c1ccc(Br)cc1,14.8%
19,Cc1noc(C)c1C(=O)Nc1nc(-c2ccc(F)cc2)cs1,0.197%
20,CC(=O)N1CCN(C(=O)c2cc(C)nc3ccccc23)CC1,31.1%
21,Cc1ccccc1CNC(=O)Cn1cnc(S(=O)(=O)N2CCCC2)c1,6.06%
22,COc1cc(/C=N/NC(=O)c2cc(-c3ccco3)nc3ccccc23)cc(OC)c1O,4.8%

row,Compound,"hERG current change (%, negative = inhibition) at 10uM"
1,COc1cc(CNC(C)(C)CO)cc(Br)c1OCc1ccccc1.Cl,-17.2%
2,CC(=O)c1cc2c(cc1NS(=O)(=O)c1ccc3c(c1)OCCO3)OCO2,-7.12%
3,O=C(COc1cccc(Br)c1)N/N=C/C(=O)c1ccccc1,-20.7%
4,COc1cccc(CNC(=O)C2CCN(S(=O)(=O)c3ccc4c(c3)NC(=O)CO4)CC2)c1,5.08%
5,COc1ccc(Cn2c(N)c(C(=O)NCc3ccco3)c3nc4ccccc4nc32)cc1,10.6%
6,COc1ccc(N/C(=N\c2nc(C)cc(C)n2)NC(=O)C(C)C)cc1OC,13.6%
7,CCCCCCn1nc(C(=O)OCC(=O)NC2CCS(=O)(=O)C2)c2ccccc2c1=O (centres unmarked),-40.2%
8,CC(C)NC(=O)NC(=O)COC(=O)c1c2c(nc3ccccc13)CCC2,-4.56%
9,CC1(C)CC(=O)C(C=NCCN2CCN(C3CC(=O)N(c4cccc(Br)c4)C3=O)CC2)=C(O)C1 (centres unmarked),-7%
10,CC(C)(C)NC(=O)C(=O)NNC(=O)c1cccc(F)c1,18.1%
11,COc1cccc(CNC(=O)Cn2cc3c(n2)CCCCC3)c1,-0.591%
12,NC(=O)CN1CCN(S(=O)(=O)c2ccc(Cl)cc2)CC1,9.23%
13,COc1ccc(-c2noc(CCC(=O)NCc3ccco3)n2)cc1,5.33%
14,COC(=O)c1sccc1OCc1cccc(OC)c1,15.3%
15,Clc1ccc2noc(-c3ccccc3)c2c1,7.67%
16,CC1CC(C)CN(CCCNC(=O)Cn2cccc2C(=O)c2ccccc2)C1 (centres unmarked),-63.1%
17,Cc1c(NC(=O)C2CCCCN2S(=O)(=O)c2ccc(Cl)cc2)c(=O)n(-c2ccccc2)n1C (centres unmarked),2.09%
18,COc1cccc(OC)c1C(=O)NC(=S)NCc1cccnc1,22.2%
19,CCn1c(=O)cc(C(=O)OC)sc1=Nc1ccc(F)c(F)c1,-21.8%
20,COc1ccc(NC(=O)CCC(=O)Nc2ccc3nc(N4CCOCC4)cc(C)c3c2)c(OC)c1,16.5%
